The compounds below were run against isolated recombinant JAK1 kinase domain (Homo sapiens (Human), UniProt P23458). Settings: read-out: JAK1 Ki; isolated recombinant JAK1 kinase domain, 25 μM ATP.

Row | Structure (SMILES) | Ki [nM]
1 | O=C(c1ccc(Nc2nc3c(N4CCC(O)(c5ccc(Cl)cc5)CC4)cccn3n2)cc1)N1CCCC2(CCNCC2)C1 [Example 1-216, [4-[[8-[4-(4-chlorophenyl)-4-hydroxy-1-piperidyl]-[1,2,4]triazolo[1,5-a]pyridin-2-yl]amino]phenyl]-(2,9-diazaspiro[5.5]undecan-2-yl)methanone] | 2.34
2 | O=C(c1ccc(Nc2nc3c(N4CCC(O)(c5ccc(Cl)cc5)CC4)cccn3n2)cc1)N1CCC2(CCCNC2)CC1 [Example 1-217, [4-[[8-[4-(4-chlorophenyl)-4-hydroxy-1-piperidyl]-[1,2,4]triazolo[1,5-a]pyridin-2-yl]amino]phenyl]-(2,9-diazaspiro[5.5]undecan-9-yl)methanone] | 2.3
3 | O=C(c1ccc(Nc2nc3c(N4CCC(O)(c5ccc(Cl)cc5)CC4)cccn3n2)cc1)N1CCC2(CCNCC2)CC1 [Example 1-218, [4-[[8-[4-(4-chlorophenyl)-4-hydroxy-1-piperidyl]-[1,2,4]triazolo[1,5-a]pyridin-2-yl]amino]phenyl]-(3,9-diazaspiro[5.5]undecan-3-yl)methanone] | 1.92
4 | O=C(c1ccc(Nc2nc3c(N4CCC(O)(c5ccc(Cl)cc5)CC4)cccn3n2)cc1)N1CCCC2(CCCCN2)C1 (centres unmarked) [Example 1-219, [4-[[8-[4-(4-chlorophenyl)-4-hydroxy-1-piperidyl]-[1,2,4]triazolo[1,5-a]pyridin-2-yl]amino]phenyl]-(1,8-diazaspiro[5.5]undecan-8-yl)methanone] | 2.6
5 | O=C(NCC1COC2(CCNCC2)C1)c1ccc(Nc2nc3c(N4CCC(O)(c5ccc(Cl)cc5)CC4)cccn3n2)cc1 (centres unmarked) [Example 1-220, 4-[[8-[4-(4-chlorophenyl)-4-hydroxy-1-piperidyl]-[1,2,4]triazolo[1,5-a]pyridin-2-yl]amino]-N-(1-oxa-8-azaspiro[4.5]decan-3-ylmethyl)benzamide] | 1.31
6 | O=C(NC1COC2(CCNCC2)C1)c1ccc(Nc2nc3c(N4CCC(O)(c5ccc(Cl)cc5)CC4)cccn3n2)cc1 (centres unmarked) [Example 1-221, 4-[[8-[4-(4-chlorophenyl)-4-hydroxy-1-piperidyl]-[1,2,4]triazolo[1,5-a]pyridin-2-yl]amino]-N-(1-oxa-8-azaspiro[4.5]decan-3-yl)benzamide] | 1.17
7 | O=C(NCC1CCC2(CCNCC2)O1)c1ccc(Nc2nc3c(N4CCC(O)(c5ccc(Cl)cc5)CC4)cccn3n2)cc1 (centres unmarked) [Example 1-222, 4-[[8-[4-(4-chlorophenyl)-4-hydroxy-1-piperidyl]-[1,2,4]triazolo[1,5-a]pyridin-2-yl]amino]-N-(1-oxa-8-azaspiro[4.5]decan-2-ylmethyl)benzamide] | 2.12
8 | O=C(c1ccc(Nc2nc3c(N4CCC(O)(c5ccc(Cl)cc5)CC4)cccn3n2)cc1)N1CCCC2(CCCN2)CC1 (centres unmarked) [Example 1-223, [4-[[8-[4-(4-chlorophenyl)-4-hydroxy-1-piperidyl]-[1,2,4]triazolo[1,5-a]pyridin-2-yl]amino]phenyl]-(1,9-diazaspiro[4.6]undecan-9-yl)methanone] | 3.54
9 | O=C(c1ccc(Nc2nc3c(N4CCC(O)(c5ccc(Cl)cc5)CC4)cccn3n2)cc1)N1CC2(CCNC2)C1 [Example 1-224, [4-[[8-[4-(4-chlorophenyl)-4-hydroxy-1-piperidyl]-[1,2,4]triazolo[1,5-a]pyridin-2-yl]amino]phenyl]-(2,7-diazaspiro[3.4]octan-2-yl)methanone] | 0.95
10 | O=C(c1ccc(Nc2nc3c(N4CCC(O)(c5ccc(Cl)cc5)CC4)cccn3n2)cc1)N1CCOC2(CCCNC2)C1 (centres unmarked) [Example 1-225, [4-[[8-[4-(4-chlorophenyl)-4-hydroxy-1-piperidyl]-[1,2,4]triazolo[1,5-a]pyridin-2-yl]amino]phenyl]-(1-oxa-4,8-diazaspiro[5.5]undecan-4-yl)methanone] | 1.79
11 | O=C(c1ccc(Nc2nc3c(N4CCC(O)(c5ccc(Cl)cc5)CC4)cccn3n2)cc1)N1CCC2(CCCN2)CC1 [Example 1-226, [4-[[8-[4-(4-chlorophenyl)-4-hydroxy-1-piperidyl]-[1,2,4]triazolo[1,5-a]pyridin-2-yl]amino]phenyl]-(1,8-diazaspiro[4.5]decan-8-yl)methanone] | 1.81
12 | O=C(c1ccc(Nc2nc3c(N4CCC(O)(c5ccc(Cl)cc5)CC4)cccn3n2)cc1)N1CCCC12CCNCC2 [Example 1-227, [4-[[8-[4-(4-chlorophenyl)-4-hydroxy-1-piperidyl]-[1,2,4]triazolo[1,5-a]pyridin-2-yl]amino]phenyl]-(1,8-diazaspiro[4.5]decan-1-yl)methanone] | 2.85
13 | O=C(c1ccc(Nc2nc3c(N4CCC(O)(c5ccc(Cl)cc5)CC4)cccn3n2)cc1)N1CCCC2(CNCCO2)C1 (centres unmarked) [Example 1-229, [4-[[8-[4-(4-chlorophenyl)-4-hydroxy-1-piperidyl]-[1,2,4]triazolo[1,5-a]pyridin-2-yl]amino]phenyl]-(1-oxa-4,8-diazaspiro[5.5]undecan-8-yl)methanone] | 2.94
14 | O=C(c1ccc(Nc2nc3c(N4CCC(O)(c5ccc(Cl)cc5)CC4)cccn3n2)cc1)N1CCC2(CC1)CNCCO2 [Example 1-230, [4-[[8-[4-(4-chlorophenyl)-4-hydroxy-1-piperidyl]-[1,2,4]triazolo[1,5-a]pyridin-2-yl]amino]phenyl]-(1-oxa-4,9-diazaspiro[5.5]undecan-9-yl)methanone] | 2.63
15 | O=C(c1ccc(Nc2nc3c(N4CCC(O)(c5ccc(Cl)cc5)CC4)cccn3n2)cc1)N1CCOC2(CCNCC2)C1 [Example 1-231, [4-[[8-[4-(4-chlorophenyl)-4-hydroxy-1-piperidyl]-[1,2,4]triazolo[1,5-a]pyridin-2-yl]amino]phenyl]-(1-oxa-4,9-diazaspiro[5.5]undecan-4-yl)methanone] | 1.78
16 | O=C(c1ccc(Nc2nc3c(N4CCC(O)(c5ccc(Cl)cc5)CC4)cccn3n2)cc1)N1CCCC12CCCNC2 (centres unmarked) [Example 1-233, [4-[[8-[4-(4-chlorophenyl)-4-hydroxy-1-piperidyl]-[1,2,4]triazolo[1,5-a]pyridin-2-yl]amino]phenyl]-(1,9-diazaspiro[4.5]decan-1-yl)methanone] | 2.58
17 | O=C(c1ccc(Nc2nc3c(N4CCC(O)(c5ccc(Cl)cc5)CC4)cccn3n2)cc1)N1C[C@@H]2CCN[C@@H]2C1 [Example 1-234] | 1.93
18 | O=C(c1ccc(Nc2nc3c(N4CCC(O)(c5ccc(Cl)cc5)CC4)cccn3n2)cc1)N1C[C@H]2CNC[C@H]2C1 [Example 1-235, [(3aR,6aS)-2,3,3a,4,6,6a-hexahydro-1H-pyrrolo[3,4-c]pyrrol-5-yl]-[4-[[8-[4-(4-chlorophenyl)-4-hydroxy-1-piperidyl]-[1,2,4]triazolo[1,5-a]pyridin-2-yl]amino]phenyl] methanone] | 1.86
19 | O=C(c1ccc(Nc2nc3c(N4CCC(O)(c5ccc(Cl)cc5)CC4)cccn3n2)cc1)N1CCC2(CCN2)CC1 [Example 1-236, [4-[[8-[4-(4-chlorophenyl)-4-hydroxy-1-piperidyl]-[1,2,4]triazolo[1,5-a]pyridin-2-yl]amino]phenyl]-(1,7-diazaspiro[3.5]nonan-7-yl)methanone] | 2.56
20 | O=C(N[C@H]1[C@@H]2CNC[C@@H]21)c1ccc(Nc2nc3c(N4CCC(O)(c5ccc(Cl)cc5)CC4)cccn3n2)cc1 [Example 1-238, N-[(1R,5S)-3-azabicyclo[3.1.0]hexan-6-yl]-4-[[8-[4-(4-chlorophenyl)-4-hydroxy-1-piperidyl]-[1,2,4]triazolo[1,5-a]pyridin-2-yl]amino]benzamide] | 1.73

Reference: patent US9873709B2 (priority 2013, dated 2018)
